≈ marks a conversion by molar mass, not a printed value. Where two headings read alike, the source gives them in different places. Bounds are passed on as bounds.

Usually EC50 stands for the midpoint of the concentration-response curve.

The test system of test [1] is Coxsackie B1. Nature of the test: organism not typed. Conditions: read-out: Coxsackie B1 EC50.
Test [2] concerns Rhinovirus. Nature of the test: microbe, parasite or virus in culture. It counts as cell-based. Conditions: Enterovirus.
Test [3] has as its system Coxsackie B3. Nature of the test: microbe, parasite or virus in culture. Conditions: Enterovirus B, B3, read-out: Coxsackie B3 EC50.
[4] abbreviates: HRV71, read-out: Rhino HRV71 EC50.
Setting [5] is: HRV14, read-out: Rhino HRV14 EC50.
Where [6] appears, read: HRV21, read-out: Rhino HRV21 EC50.

For `CC(C)c1ccc2c(c1)OC1(O)c3ccccc3C(=O)C21O` (stereo not shown) [Example 10, 4b,9b-Dihydroxy-7-isopropyl-4bH-benzo[d]indeno[1,2-b]furan-10(9bH)-one], the 50% effective concentration (EC50) was less than 0.01 µg/mL in test [1], less than 1 µg/mL in test [2] (setting [4]) and less than 0.01 µg/mL in test [3].
On to `CC(C)C(=O)NC12C(=O)c3c(N)cccc3C1(O)Oc1cc(C(C)C)ccc12` (stereo not shown) [Example 77, N-(1-Amino-4b-hydroxy-7-isopropyl-10-oxo-4b,10-dihydro-5-oxa-indeno[2,1-a]inden-9b-yl)-isobutylamide], for which the 50% effective concentration (EC50) in test [1], in test [2] (setting [5]) and in test [3] was less than 0.01 µg/mL throughout.
As to `CCCCCCCC(=O)N[C@@]12C(=O)c3c(N)cccc3[C@]1(O)Oc1cc(C(C)C)ccc12` [Example 93, N-((4bS,9bS)-1-Amino-4b-hydroxy-7-isopropyl-10-oxo-9b,10-dihydro-4bH-indeno[1,2-b]benzofuran-9b-yl)octanamide], the EC50 in test [1], in test [2] (setting [5]) and in test [3] was less than 0.01 µg/mL throughout.
For `CCC(=O)N[C@@]12C(=O)c3c(N)cccc3[C@]1(OC(=O)CC)Oc1cc(C(C)C)ccc12` [Example 94, (4bR,9bS)-1-Amino-7-isopropyl-10-oxo-9b-propionamido-9b,10-dihydro-4bH-indeno[1,2-b]benzofuran-4b-yl propionate], the concentration giving a half-maximal response (EC50) in test [1], in test [2] (setting [5]) and in test [3] was less than 0.01 µg/mL in each case.
`CCCC(=O)N[C@@]12C(=O)c3c(N)cccc3[C@]1(OC(=O)CCC)Oc1cc(C(C)C)ccc12` [Example 95, (4bR,9bS)-1-Amino-9b-butyramido-7-isopropyl-10-oxo-9b,10-dihydro-4bH-indeno[1,2-b]benzofuran-4b-yl butyrate]: the EC50 in test [1], in test [2] (setting [5]) and in test [3] was less than 0.01 µg/mL in each case.
With `CCCCC(=O)NC12C(=O)c3c(N)cccc3C1(OC(=O)CCCC)Oc1cc(C(C)C)ccc12` (stereo not shown) [Example 96, 1-Amino-7-isopropyl-10-oxo-9b-pentanamido-9b,10-dihydro-4bH-benzo[d]indeno[1,2-b]furan-4b-yl pentanoate], the concentration for a half-maximal effect (EC50) in test [1], in test [2] (setting [5]) and in test [3] was less than 0.01 µg/mL throughout.
As for `CCCCCC(=O)NC12C(=O)c3c(N)cccc3C1(OC(=O)CCCCC)Oc1cc(C(C)C)ccc12` (stereo not shown) [Example 97, 1-amino-9b-hexanamido-7-isopropyl-10-oxo-9b,10-dihydro-4bH-benzo[d]indeno[1,2-b]furan-4b-yl hexanoate], the EC50 in test [1], in test [2] (setting [5]) and in test [3] was less than 0.01 µg/mL throughout.
With `CCCCCCC(=O)NC12C(=O)c3c(N)cccc3C1(OC(=O)CCCCCC)Oc1cc(C(C)C)ccc12` (stereo not shown) [Example 99, 1-Amino-9b-heptanamido-7-isopropyl-10-oxo-9b,10-dihydro-4bH-benzo[d]indeno[1,2-b]furan-4b-yl heptanoate], the EC50 in test [1] was less than 0.01 µg/mL; in test [2] (setting [5]), 0.0101 µg/mL (≈ 0.0189 µM); in test [3], less than 0.01 µg/mL.
Turning to `COC(=O)OC12Oc3cc(C(C)C)ccc3C1(NC(C)=O)C(=O)c1c(N)cccc12` (stereo not shown) [Example 113, 9b-acetamido-1-amino-7-isopropyl-10-oxo-9b,10-dihydro-4bH-indeno[1,2-b]benzofuran-4b-yl methyl carbonate], the EC50 in test [1] is less than 0.01 µg/mL; in test [2] (setting [5]) it was less than 0.01 µg/mL; in test [2] (setting [6]) it was less than 1 µg/mL; in test [3] it was less than 0.01 µg/mL.
As to `CC(C)c1ccc2c(c1)OC1(O)c3cccc(N)c3C(=O)C21NC(=O)C(C)(C)C` (stereo not shown) [Example 114, N-(1-Amino-4b-hydroxy-7-isopropyl-10-oxo-9b,10-dihydro-4bH-benzo[d]indeno[1,2-b]furan-9b-yl)pivalamide], the 50% effective concentration (EC50) in test [1], in test [2] (setting [5]) and in test [3] was less than 0.01 µg/mL each time.
In the case of `CCCCOC(=O)OC12Oc3cc(C(C)C)ccc3C1(NC(C)=O)C(=O)c1c(N)cccc12` (stereo not shown) [Example 115, 9b-Acetamido-1-amino-7-isopropyl-10-oxo-9b,10-dihydro-4bH-benzo[d]indeno[1,2-b]furan-4b-yl butyl carbonate], the half-maximal effective concentration (EC50) in test [1], in test [2] (setting [5]) and in test [3] was less than 0.01 µg/mL throughout.
Consider `CCOC(=O)OC12Oc3cc(C(C)C)ccc3C1(NC(C)=O)C(=O)c1c(N)cccc12` (stereo not shown) [Example 123, 9b-Acetamido-1-amino-7-isopropyl-10-oxo-9b,10-dihydro-4bH-benzo[d]indeno[1,2-b]furan-4b-yl ethyl carbonate], for which the EC50 in test [1] is less than 0.01 µg/mL; in test [2] (setting [5]), less than 0.01 µg/mL; in test [2] (setting [6]), less than 1 µg/mL; in test [3] it was less than 0.01 µg/mL.
`CCC(=O)NC12C(=O)c3c(N)cccc3C1(O)Oc1cc(C(C)C)ccc12` (stereo not shown) [Example 143, N-(1-Amino-4b-hydroxy-7-isopropyl-10-oxo-9b,10-dihydro-4bH-indeno[1,2-b]benzofuran-9b-yl)propionamide]: the EC50 was less than 0.01 µg/mL in test [1], less than 0.01 µg/mL in test [2] (setting [5]), less than 1 µg/mL in test [2] (setting [6]) and less than 0.01 µg/mL in test [3].
Take `CCCC(=O)NC12C(=O)c3c(N)cccc3C1(O)Oc1cc(C(C)C)ccc12` (stereo not shown) [Example 144, N-(1-Amino-4b-hydroxy-7-isopropyl-10-oxo-9b,10-dihydro-4bH-indeno[1,2-b]benzofuran-9b-yl) butyramide]: the half-maximal effective concentration (EC50) was less than 0.01 µg/mL in test [1], less than 0.01 µg/mL in test [2] (setting [5]), less than 1 µg/mL in test [2] (setting [6]) and less than 0.01 µg/mL in test [3].
As for `CC(C)c1ccc2c(c1)OC1(O)c3cccc(N)c3C(=O)C21NC(=O)c1ccccc1` (stereo not shown) [Example 153, N-(1-Amino-4b-hydroxy-7-isopropyl-10-oxo-9b,10-dihydro-4bH-indeno[1,2-b]benzofuran-9b-yl)benzamide], the EC50 is less than 0.01 µg/mL in test [1]; less than 0.01 µg/mL in test [2] (setting [5]); less than 1 µg/mL in test [2] (setting [6]); less than 1 µg/mL in test [2] (setting [4]); less than 0.01 µg/mL in test [3].
On to `COc1cccc(C(=O)NC23C(=O)c4c(N)cccc4C2(O)Oc2cc(C(C)C)ccc23)c1` (stereo not shown) [Example 154, N-(1-Amino-4b-hydroxy-7-isopropyl-10-oxo-9b,10-dihydro-4bH-indeno[1,2-b]benzofuran-9b-yl)-3-methoxybenzamide], for which the EC50 in test [1] was less than 0.01 µg/mL; in test [2] (setting [5]), less than 0.01 µg/mL; in test [2] (setting [6]), less than 1 µg/mL; in test [2] (setting [4]), less than 1 µg/mL; in test [3] it was less than 0.01 µg/mL.
Regarding `CC(C)c1ccc2c(c1)OC1(O)c3cccc(N)c3C(=O)C21NC(=O)c1ccc(Cl)cc1` (stereo not shown) [Example 155, N-(1-Amino-4b-hydroxy-7-isopropyl-10-oxo-9b,10-dihydro-4bH-indeno[1,2-b]benzofuran-9b-yl)-4-chlorobenzamide], the concentration for a half-maximal effect (EC50) in test [1] is less than 0.01 µg/mL; in test [2] (setting [5]), less than 0.01 µg/mL; in test [2] (setting [6]), less than 1 µg/mL; in test [2] (setting [4]), less than 1 µg/mL; in test [3], less than 0.01 µg/mL.
As to `CC(C)c1ccc2c(c1)OC1(O)c3cccc(N)c3C(=O)C21NC(=O)C1CC1` (stereo not shown) [Example 158, N-(1-Amino-4b-hydroxy-7-isopropyl-10-oxo-9b,10-dihydro-4bH-indeno[1,2-b]benzofuran-9b-yl)cyclopropanecarboxamide], the half-maximal effective concentration (EC50) was less than 0.01 µg/mL in test [1], less than 0.01 µg/mL in test [2] (setting [5]), less than 1 µg/mL in test [2] (setting [6]) and less than 0.01 µg/mL in test [3].
Turning to `CC(C)c1ccc2c(c1)OC1(O)c3ccccc3C(=O)C21NC(=O)c1cccs1` (stereo not shown) [Example 161, N-(4b-Hydroxy-7-isopropyl-10-oxo-9b,10-dihydro-4bH-indeno[1,2-b]benzofuran-9b-yl)thiophene-2-carboxamide], the concentration giving a half-maximal response (EC50) in test [1] was less than 0.01 µg/mL; in test [2] (setting [5]), less than 0.01 µg/mL; in test [2] (setting [6]), less than 1 µg/mL; in test [3], less than 0.01 µg/mL.
As for `CC(C)c1ccc2c(c1)OC1(O)c3cccc(N)c3C(=O)C21NC(=O)NC(C)(C)C` (stereo not shown) [Example 165], the concentration giving a half-maximal response (EC50) in test [1], in test [2] (setting [5]) and in test [3] was less than 0.01 µg/mL throughout.
With `CC(C)c1ccc2c(c1)OC1(O)c3ccccc3C(=O)C21NC(=O)c1ccc(=O)oc1` (stereo not shown) [Example 226, N-(4b-Hydroxy-7-isopropyl-10-oxo-9b,10-dihydro-4bH-benzo[d]indeno[1,2-b]furan-9b-yl)-2-oxo-2H-pyrane-5-carboxamide], the EC50 in test [1] and in test [3] was less than 0.01 µg/mL throughout.
On to `CC(C)c1ccc2c(c1)OC1(O)c3ccccc3C(=O)C21NC(=O)c1nc2ccccc2[nH]1` (stereo not shown) [Example 227, N-(4b-hydroxy-7-isopropyl-10-oxo-9b,10-dihydro-4bH-benzo[d]indeno[1,2-b]furan-9b-yl)-1H-benzo[d]imidazole-2-carboxamide], for which the EC50 in test [1] and in test [3] was less than 0.01 µg/mL each time.
Take `CC(C)c1ccc2c(c1)OC1(O)c3cccc(N)c3C(=O)C21NC(=O)c1ccc(N)o1` (stereo not shown) [Example 232, 5-amino-N-(1-amino-4b-hydroxy-7-isopropyl-10-oxo-9b,10-dihydro-4bH-indeno[1,2-b]benzofuran-9b-yl)furane-2-carboxamide]: the concentration for a half-maximal effect (EC50) was determined as 0.012 µg/mL (≈ 0.0286 µM) in test [1] and 0.024 µg/mL (≈ 0.0572 µM) in test [3].
Consider `CC(C)c1ccc2c(c1)OC1(O)c3ccccc3C(=O)C21NC(=O)c1cnnc2ccccc12` (stereo not shown) [Example 239, N-(4b-hydroxy-7-isopropyl-10-oxo-9b,10-dihydro-4bH-benzo[d]indeno[1,2-b]furan-9b-yl)cinnoline-4-carboxamide], for which the EC50 in test [1] and in test [3] was less than 0.01 µg/mL throughout.
Take `CC(C)c1ccc2c(c1)OC1(O)c3cccc(N)c3C(=O)C21NC(=O)c1c2ccccc2nc2ccccc12` (stereo not shown) [Example 241, N-(1-Amino-4b-hydroxy-7-isopropyl-10-oxo-9b,10-dihydro-4bH-benzo[d]indeno[1,2-b]furan-9b-yl)acridine-9-carboxamide]: the concentration for a half-maximal effect (EC50) in test [1] and in test [3] was less than 0.01 µg/mL throughout.

The values above are taken from patent US9890133B2 (priority 2011, dated 2018).
